Some of the results follow. The list includes weakly bound sequences.

Binding signal (RPM ratio (pull-down/input)) data for 31 sequences are collected here from PMC12820563.

The target in this experiment is T1, MBP-FoxP3dN (UniProt Q99JB6).
T1 sequence: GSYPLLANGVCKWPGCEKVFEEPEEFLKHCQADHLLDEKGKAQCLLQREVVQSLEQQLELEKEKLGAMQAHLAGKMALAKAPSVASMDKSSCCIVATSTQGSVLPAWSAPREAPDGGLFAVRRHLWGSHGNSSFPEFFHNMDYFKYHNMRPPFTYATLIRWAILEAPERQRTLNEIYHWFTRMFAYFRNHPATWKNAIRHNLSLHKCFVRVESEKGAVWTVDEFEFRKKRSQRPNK
Kind of experiment: PD-seq (MBP pull-down with sequencing). As to conditions: 20 mM Tris-HCl pH 7.5, 100 mM NaCl, 1.5 mM MgCl2, 0.4 uM protein, 0.1 uM dsDNA library, 30 min, room temperature, amylose pull-down; high values mean tight binding; double strand, one strand shown.
For “GATGATTGTTCTCCCAGCTGATGAATTGAAAGACTCGAGTAAACAAATTTTCCTAATCTTTCTGTTCAAGCGCCATCTAC”, the binding signal (RPM ratio (pull-down/input)) came out at 0.219.

Take “GATGATTGTTCTCCCAGCTGATGAATTGTCAGGTTCGAGTAAACAAATTTTCCTAATCTTTCTGTTCAAGCGCCATCTAC”: the binding signal (RPM ratio (pull-down/input)) came to 0.338. The same measure for “GATGATTGTTCTCCCAGCTGATGAATTCAGACTCTCGAGTAAACAAATTTTCCTAATCTTTCTGTTCAAGCGCCATCTAC”: 1.33; for “GATGATTGTTCTCCCAGCTGATGAATTTCGTCACTCGAGTAAACAAATTTTCCTAATCTTTCTGTTCAAGCGCCATCTAC”: 1.6; for “GATGATTGTTCTCCCAGCTGATGAATTAGTCGTATCGAGTAAACAAATTTTCCTAATCTTTCTGTTCAAGCGCCATCTAC”: 1.35. The same measure for “GATGATTGTTCTCCCAGCTGATGAATTCAAGCTATCGAGTAAACAAATTTTCCTAATCTTTCTGTTCAAGCGCCATCTAC”: 0.713. The same measure for “GATGATTGTTCTCCCAGCTGATGAATTATTAGCTTCGAGTAAACAAATTTTCCTAATCTTTCTGTTCAAGCGCCATCTAC”: 0.671; for “GATGATTGTTCTCCCAGCTGATGAATTGAAAGAGTCGAGTAAACAAATTTTCCTAATCTTTCTGTTCAAGCGCCATCTAC”: 0.192.

For “GATGATTGTTCTCCCAGCTGATGAATTAAGAAGCTCGAGTAAACAAATTTTCCTAATCTTTCTGTTCAAGCGCCATCTAC”, the binding signal (RPM ratio (pull-down/input)) was determined as 0.24. To “GATGATTGTTCTCCCAGCTGATGAATTTGATGTCTCGAGTAAACAAATTTTCCTAATCTTTCTGTTCAAGCGCCATCTAC” belongs 5.34; to “GATGATTGTTCTCCCAGCTGATGAATTGAATTACTCGAGTAAACAAATTTTCCTAATCTTTCTGTTCAAGCGCCATCTAC”, 1.28; to “GATGATTGTTCTCCCAGCTGATGAATTCATTTTCTCGAGTAAACAAATTTTCCTAATCTTTCTGTTCAAGCGCCATCTAC”, 1.42. To “GATGATTGTTCTCCCAGCTGATGAATTCCTCAGGTCGAGTAAACAAATTTTCCTAATCTTTCTGTTCAAGCGCCATCTAC” belongs 0.177. The same measure for “GATGATTGTTCTCCCAGCTGATGAATTTACATGATCGAGTAAACAAATTTTCCTAATCTTTCTGTTCAAGCGCCATCTAC”: 0.589; for “GATGATTGTTCTCCCAGCTGATGAATTGGATTATTCGAGTAAACAAATTTTCCTAATCTTTCTGTTCAAGCGCCATCTAC”: 1.35. For the sequence “GATGATTGTTCTCCCAGCTGATGAATTTACCGTTTCGAGTAAACAAATTTTCCTAATCTTTCTGTTCAAGCGCCATCTAC”, the binding signal (RPM ratio (pull-down/input)) is 0.609.

For “GATGATTGTTCTCCCAGCTGATGAATTTCATTAGTCGAGTAAACAAATTTTCCTAATCTTTCTGTTCAAGCGCCATCTAC”, the binding signal (RPM ratio (pull-down/input)) stood at 0.798. The same measure for “GATGATTGTTCTCCCAGCTGATGAATTGTATGCATCGAGTAAACAAATTTTCCTAATCTTTCTGTTCAAGCGCCATCTAC”: 2.97; for “GATGATTGTTCTCCCAGCTGATGAATTCATAAAGTCGAGTAAACAAATTTTCCTAATCTTTCTGTTCAAGCGCCATCTAC”: 0.238; for “GATGATTGTTCTCCCAGCTGATGAATTCGGTAACTCGAGTAAACAAATTTTCCTAATCTTTCTGTTCAAGCGCCATCTAC”: 1.26.

Regarding “GATGATTGTTCTCCCAGCTGATGAATTCACAATTTCGAGTAAACAAATTTTCCTAATCTTTCTGTTCAAGCGCCATCTAC”, the binding signal (RPM ratio (pull-down/input)) was found to be 0.405. To “GATGATTGTTCTCCCAGCTGATGAATTAAATTGCTCGAGTAAACAAATTTTCCTAATCTTTCTGTTCAAGCGCCATCTAC” belongs 0.966; to “GATGATTGTTCTCCCAGCTGATGAATTGGCCCGATCGAGTAAACAAATTTTCCTAATCTTTCTGTTCAAGCGCCATCTAC”, 0.218. Consider “GATGATTGTTCTCCCAGCTGATGAATTAGAGATCTCGAGTAAACAAATTTTCCTAATCTTTCTGTTCAAGCGCCATCTAC”, for which the binding signal (RPM ratio (pull-down/input)) came out at 0.32. To “GATGATTGTTCTCCCAGCTGATGAATTTGGGGATTCGAGTAAACAAATTTTCCTAATCTTTCTGTTCAAGCGCCATCTAC” belongs 0.573; to “GATGATTGTTCTCCCAGCTGATGAATTATGATGCTCGAGTAAACAAATTTTCCTAATCTTTCTGTTCAAGCGCCATCTAC”, 1.73. Take “GATGATTGTTCTCCCAGCTGATGAATTAAACGAATCGAGTAAACAAATTTTCCTAATCTTTCTGTTCAAGCGCCATCTAC”: the binding signal (RPM ratio (pull-down/input)) worked out at 0.265. To “GATGATTGTTCTCCCAGCTGATGAATTCCTCTATTCGAGTAAACAAATTTTCCTAATCTTTCTGTTCAAGCGCCATCTAC” belongs 0.318; to “GATGATTGTTCTCCCAGCTGATGAATTGTCTTTCTCGAGTAAACAAATTTTCCTAATCTTTCTGTTCAAGCGCCATCTAC”, 0.551. To “GATGATTGTTCTCCCAGCTGATGAATTAACCCCATCGAGTAAACAAATTTTCCTAATCTTTCTGTTCAAGCGCCATCTAC” belongs 0.292. In the case of “GATGATTGTTCTCCCAGCTGATGAATTAAAGCGTTCGAGTAAACAAATTTTCCTAATCTTTCTGTTCAAGCGCCATCTAC”, the binding signal (RPM ratio (pull-down/input)) was determined as 1.23.
